# From the supplement of paper PMC8728848
# The other results are listed elsewhere or left out.
# Columns and labels:
# Assay in all cases: glycan array binding signal (z-score within array); higher = stronger binding
# Conditions in all cases: glycan notation: IUPAC condensed, linker removed
# [1] = molecular target: Neu5Ac(a2-3)Gal(b1-4)GlcNAc(b1-3)Gal(b1-4)GlcNAc
# Summary of the method: (§1)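 Glycan array data were curated from 3228 arrays in the Consortium for Functional Glycomics database and kept only where the protein sequence was available. Glycan names were converted to IUPAC-condensed notation, and columns mapping to the same glycan were averaged. The binding signal is a within-array Z-score, averaged across arrays of the same protein sequence at different concentrations or buffers and across linkers. Negative Z-scores can be read as non-binding.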
# [2] = molecular target: Neu5Ac(a2-3)Gal(b1-4)GlcNAc(b1-3)Gal(b1-4)GlcNAc(b1-3)Gal(b1-4)GlcNAc
# Summary of the method: as §1
# [3] = molecular target: Neu5Ac(a2-3)Gal(b1-4)GlcNAc(b1-3)Gal(b1-4)[Fuc(a1-3)]GlcNAc
# Summary of the method: as §1
# [4] = molecular target: Neu5Ac(a2-3)Gal(b1-4)GlcNAc6S
# Summary of the method: as §1
# [5] = molecular target: Neu5Ac(a2-3)Gal(b1-4)[Fuc(a1-3)]GlcNAc
# Summary of the method: as §1
# [6] = molecular target: Neu5Ac(a2-3)Gal(b1-4)[Fuc(a1-3)]GlcNAc(b1-3)Gal
# Summary of the method: as §1
# [7] = molecular target: Neu5Ac(a2-3)Gal(b1-4)[Fuc(a1-3)]GlcNAc(b1-3)Gal(b1-4)GlcNAc
# Summary of the method: as §1
# [8] = molecular target: Neu5Ac(a2-3)Gal(b1-4)[Fuc(a1-3)]GlcNAc(b1-3)Gal(b1-4)[Fuc(a1-3)]GlcNAc(b1-3)Gal(b1-4)[Fuc(a1-3)]GlcNAc
# Summary of the method: as §1
# [9] = molecular target: Neu5Ac(a2-3)Gal(b1-4)[Fuc(a1-3)]GlcNAc6S
# Summary of the method: as §1
# [10] = molecular target: Neu5Ac(a2-3)Gal6S(b1-4)GlcNAc
# Summary of the method: as §1
# [11] = molecular target: Neu5Ac(a2-3)Gal6S(b1-4)[Fuc(a1-3)]GlcNAc
# Summary of the method: as §1
# Neu5Ac(a2-3)GalNAc = molecular target: Neu5Ac(a2-3)GalNAc
# Summary of the method: as §1
# [12] = molecular target: Neu5Ac(a2-3)GalNAc(b1-4)GlcNAc
# Summary of the method: as §1
# [13] = molecular target: Neu5Ac(a2-3)[GalNAc(b1-4)]Gal(b1-4)Glc
# Summary of the method: as §1
# [14] = molecular target: Neu5Ac(a2-3)[GalNAc(b1-4)]Gal(b1-4)GlcNAc
# Summary of the method: as §1
# [15] = molecular target: Neu5Ac(a2-3)[Neu5Ac(a2-6)]GalNAc
# Summary of the method: as §1
# Neu5Ac(a2-6)Gal = molecular target: Neu5Ac(a2-6)Gal
# Summary of the method: as §1
# Neu5Ac(a2-6)Gal(b1-4)Glc = molecular target: Neu5Ac(a2-6)Gal(b1-4)Glc
# Summary of the method: as §1
# [16] = molecular target: Neu5Ac(a2-6)Gal(b1-4)GlcNAc
# Summary of the method: as §1
# [17] = molecular target: Neu5Ac(a2-6)Gal(b1-4)GlcNAc(b1-2)Man(a1-3)[Neu5Ac(a2-6)Gal(b1-4)GlcNAc(b1-2)Man(a1-6)]Man(b1-4)GlcNAc(b1-4)GlcNAc
# Summary of the method: as §1
# [18] = molecular target: Neu5Ac(a2-6)Gal(b1-4)GlcNAc(b1-3)Gal(b1-4)GlcNAc
# Summary of the method: as §1
# [19] = molecular target: Neu5Ac(a2-6)Gal(b1-4)GlcNAc(b1-3)Gal(b1-4)[Fuc(a1-3)]GlcNAc(b1-3)Gal(b1-4)[Fuc(a1-3)]GlcNAc
# Summary of the method: as §1
# [20] = molecular target: Neu5Ac(a2-6)Gal(b1-4)GlcNAc6S
# Summary of the method: as §1
# Neu5Ac(a2-6)GalNAc = molecular target: Neu5Ac(a2-6)GalNAc
# Summary of the method: as §1
# [21] = molecular target: Neu5Ac(a2-6)GalNAc(b1-4)GlcNAc
# Summary of the method: as §1
# Neu5Ac(a2-8)Neu5Ac = molecular target: Neu5Ac(a2-8)Neu5Ac
# Summary of the method: as §1
# [22] = molecular target: Neu5Ac(a2-8)Neu5Ac(a2-3)Gal(b1-4)Glc
# Summary of the method: as §1
# [23] = molecular target: Neu5Ac(a2-8)Neu5Ac(a2-3)[GalNAc(b1-4)]Gal(b1-4)Glc
# Summary of the method: as §1
# [24] = molecular target: Neu5Ac(a2-8)Neu5Ac(a2-8)Neu5Ac
# Summary of the method: as §1
# [25] = molecular target: Neu5Ac(a2-8)Neu5Ac(a2-8)Neu5Ac(a2-3)Gal(b1-4)Glc
# Summary of the method: as §1
# [26] = molecular target: Neu5Ac(a2-8)Neu5Ac(a2-8)Neu5Ac(a2-3)[GalNAc(b1-4)]Gal(b1-4)Glc
# Summary of the method: as §1
# [27] = molecular target: Neu5Ac(a2-8)Neu5Ac(a2-8)Neu5Ac(a2-8)Neu5Ac(a2-3)[GalNAc(b1-4)]Gal(b1-4)Glc
# Summary of the method: as §1
# Neu5Ac(b1-6)GalNAc = molecular target: Neu5Ac(b1-6)GalNAc
# Summary of the method: as §1
# [28] = molecular target: Neu5Ac(b2-6)Gal(b1-4)GlcNAc
# Summary of the method: as §1
# [29] = molecular target: Neu5Ac9Ac(a2-6)Gal(b1-4)GlcNAc
# Summary of the method: as §1
# [30] = molecular target: Neu5Gc(a2-3)Gal(b1-3)GlcNAc
# Summary of the method: as §1
# [31] = molecular target: Neu5Gc(a2-3)Gal(b1-3)[Fuc(a1-4)]GlcNAc
# Summary of the method: as §1
# Neu5Gc(a2-3)Gal(b1-4)Glc = molecular target: Neu5Gc(a2-3)Gal(b1-4)Glc
# Summary of the method: as §1
# [32] = molecular target: Neu5Gc(a2-3)Gal(b1-4)GlcNAc
# Summary of the method: as §1
# [33] = molecular target: Neu5Gc(a2-3)Gal(b1-4)[Fuc(a1-3)]GlcNAc
# Summary of the method: as §1
# [34] = molecular target: Neu5Gc(a2-6)Gal(b1-4)GlcNAc
# Summary of the method: as §1
# Neu5Gc(a2-6)GalNAc = molecular target: Neu5Gc(a2-6)GalNAc
# Summary of the method: as §1
binder,measurement,setting,value
"DCIR (Homo sapiens), Q9UMR7 (protein) MTSEITYAEVRFKNEFKSSGINTASSAASKERTAPHKSNTGFPKLLCASLLIFFLLLAISFFIAFVIFFQKYSQLLEKKTTKELVHTTLECVKKNMPVEETAWSCCPKNWKSFSSNCYFISTESASWQDSEKDCARMEAHLLVINTQEEQDFIFQNLQEESAYFVGLSDPEGQRHWQWVDQTPYNESSTFWHPREPSDPNERCVVLNFRKSPKRWGWNDVNCLGPQRSVCEMMKIHL",glycan array binding signal (z-score),[1],-0.119
same,glycan array binding signal (z-score),[2],0.196
same,glycan array binding signal (z-score),[3],-0.435
same,glycan array binding signal (z-score),[4],1.32
same,glycan array binding signal (z-score),[5],-0.173
same,glycan array binding signal (z-score),[6],-0.071
same,glycan array binding signal (z-score),[7],-0.392
same,glycan array binding signal (z-score),[8],-0.372
same,glycan array binding signal (z-score),[9],-0.213
same,glycan array binding signal (z-score),[10],-0.055
same,glycan array binding signal (z-score),[11],-0.15
same,glycan array binding signal (z-score),Neu5Ac(a2-3)GalNAc,-0.163
same,glycan array binding signal (z-score),[12],-0.382
same,glycan array binding signal (z-score),[13],-0.433
same,glycan array binding signal (z-score),[14],-0.064
same,glycan array binding signal (z-score),[15],-0.304
same,glycan array binding signal (z-score),Neu5Ac(a2-6)Gal,-0.039
same,glycan array binding signal (z-score),Neu5Ac(a2-6)Gal(b1-4)Glc,-0.16
same,glycan array binding signal (z-score),[16],-0.217
same,glycan array binding signal (z-score),[17],-0.178
same,glycan array binding signal (z-score),[18],-0.415
same,glycan array binding signal (z-score),[19],-0.304
same,glycan array binding signal (z-score),[20],0.011
same,glycan array binding signal (z-score),Neu5Ac(a2-6)GalNAc,-0.245
same,glycan array binding signal (z-score),[21],0.018
same,glycan array binding signal (z-score),Neu5Ac(a2-8)Neu5Ac,-0.501
same,glycan array binding signal (z-score),[22],-0.187
same,glycan array binding signal (z-score),[23],-0.373
same,glycan array binding signal (z-score),[24],-0.001
same,glycan array binding signal (z-score),[25],-0.304
same,glycan array binding signal (z-score),[26],-0.052
same,glycan array binding signal (z-score),[27],-0.266
same,glycan array binding signal (z-score),Neu5Ac(b1-6)GalNAc,-0.079
same,glycan array binding signal (z-score),[28],-0.27
same,glycan array binding signal (z-score),[29],-0.355
same,glycan array binding signal (z-score),[30],-0.279
same,glycan array binding signal (z-score),[31],0.047
same,glycan array binding signal (z-score),Neu5Gc(a2-3)Gal(b1-4)Glc,-0.322
same,glycan array binding signal (z-score),[32],-0.294
same,glycan array binding signal (z-score),[33],0.251
same,glycan array binding signal (z-score),[34],0.115
same,glycan array binding signal (z-score),Neu5Gc(a2-6)GalNAc,-0.266
